# Measurements taken from the supplement of paper PMC8728848.
# The other results are listed elsewhere or left out.
# B1: Banana lectin (Musa acuminata) (protein)
# chain: MNGAIKVGAWGGNGGSAFDMGPAYRIISVKIFSGDVVDAVDVTFTYYGKTETRHFGGSGGTPHEIVLQEGEYLVGMKGEFGNYHGVVVVGKLGFSTNKKSYGPFGNTGGTPFSLPIAAGKISGFFGRGGDFIDAIGVYLEP
# Legend:
# Test in all cases: glycan array binding signal (z-score within array); higher = stronger binding
# Settings in all cases: glycan notation: IUPAC condensed, linker removed
# [1] = target: Fuc(a1-2)Gal
# Outline: (§1)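 Glycan array data came from 3228 arrays in the Consortium for Functional Glycomics database, and only arrays with an available protein sequence were kept. Glycan names were put into IUPAC-condensed notation, and columns mapping to the same glycan were averaged. The binding signal is a within-array Z-score, averaged across arrays of one protein sequence run at different concentrations or buffers and across linkers. A negative Z-score can be read as non-binding.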
# [2] = target: Fuc(a1-2)Gal(b1-3)GalNAc
# Outline: as §1
# [3] = target: Fuc(a1-2)Gal(b1-3)GalNAc(a1-3)[Fuc(a1-2)]Gal(b1-4)Glc
# Outline: as §1
# [4] = target: Fuc(a1-2)Gal(b1-3)GalNAc(a1-3)[Fuc(a1-2)]Gal(b1-4)GlcNAc
# Outline: as §1
# [5] = target: Fuc(a1-2)Gal(b1-3)GalNAc(b1-3)Gal
# Outline: as §1
# [6] = target: Fuc(a1-2)Gal(b1-3)GalNAc(b1-3)Gal(a1-4)Gal(b1-4)Glc
# Outline: as §1
# [7] = target: Fuc(a1-2)Gal(b1-3)GalNAc(b1-4)[Neu5Ac(a2-3)]Gal(b1-4)Glc
# Outline: as §1
# [8] = target: Fuc(a1-2)Gal(b1-3)GlcNAc
# Outline: as §1
# [9] = target: Fuc(a1-2)Gal(b1-3)GlcNAc(b1-2)Man(a1-3)[Fuc(a1-2)Gal(b1-3)GlcNAc(b1-2)Man(a1-6)]Man(b1-4)GlcNAc(b1-4)GlcNAc
# Outline: as §1
# [10] = target: Fuc(a1-2)Gal(b1-3)GlcNAc(b1-2)Man(a1-3)[Fuc(a1-2)Gal(b1-3)GlcNAc(b1-2)Man(a1-6)]Man(b1-4)GlcNAc(b1-4)[Fuc(a1-6)]GlcNAc
# Outline: as §1
# [11] = target: Fuc(a1-2)Gal(b1-3)GlcNAc(b1-3)Gal(b1-4)Glc
# Outline: as §1
# [12] = target: Fuc(a1-2)Gal(b1-3)GlcNAc(b1-3)GalNAc
# Outline: as §1
# [13] = target: Fuc(a1-2)Gal(b1-3)GlcNAc(b1-3)[Fuc(a1-2)Gal(b1-3)GlcNAc(b1-6)]GalNAc
# Outline: as §1
# [14] = target: Fuc(a1-2)Gal(b1-3)GlcNAc(b1-3)[Gal(b1-4)GlcNAc(b1-6)]Gal(b1-4)Glc
# Outline: as §1
# [15] = target: Fuc(a1-2)Gal(b1-3)GlcNAc(b1-3)[Neu5Ac(a2-6)Gal(b1-4)GlcNAc(b1-6)]Gal(b1-4)Glc
# Outline: as §1
# [16] = target: Fuc(a1-2)Gal(b1-3)GlcNAc6S
# Outline: as §1
# [17] = target: Fuc(a1-2)Gal(b1-3)[Fuc(a1-4)]GlcNAc
# Outline: as §1
# [18] = target: Fuc(a1-2)Gal(b1-3)[Fuc(a1-4)]GlcNAc(b1-2)Man(a1-3)[Fuc(a1-2)Gal(b1-3)[Fuc(a1-4)]GlcNAc(b1-2)Man(a1-3)]Man(b1-4)GlcNAc(b1-4)GlcNAc
# Outline: as §1
# [19] = target: Fuc(a1-2)Gal(b1-3)[Fuc(a1-4)]GlcNAc(b1-2)Man(a1-3)[Fuc(a1-2)Gal(b1-3)[Fuc(a1-4)]GlcNAc(b1-2)Man(a1-6)]Man(b1-4)GlcNAc(b1-4)[Fuc(a1-6)]GlcNAc(b1-4)[Fuc(a1-6)]GlcNAc
# Outline: as §1
# [20] = target: Fuc(a1-2)Gal(b1-3)[Fuc(a1-4)]GlcNAc(b1-3)[Fuc(a1-3)[Gal(b1-4)]GlcNAc(b1-6)]Gal(b1-4)Glc
# Outline: as §1
# [21] = target: Fuc(a1-2)Gal(b1-3)[Fuc(a1-4)]GlcNAc(b1-3)[Gal(b1-4)GlcNAc(b1-6)]Gal(b1-4)Glc
# Outline: as §1
# [22] = target: Fuc(a1-2)Gal(b1-4)Fuc(a1-3)]GlcNAc(b1-2)Man(a1-3)[Fuc(a1-2)Gal(b1-4)[Fuc(a1-3)]GlcNAc(b1-2)Man(a1-6)]Man(b1-4)GlcNAc(b1-4)GlcNAc
# Outline: as §1
# [23] = target: Fuc(a1-2)Gal(b1-4)Glc
# Outline: as §1
# [24] = target: Fuc(a1-2)Gal(b1-4)Glc6S
# Outline: as §1
# [25] = target: Fuc(a1-2)Gal(b1-4)GlcNAc
# Outline: as §1
# [26] = target: Fuc(a1-2)Gal(b1-4)GlcNAc(b1-2)Man
# Outline: as §1
# [27] = target: Fuc(a1-2)Gal(b1-4)GlcNAc(b1-2)Man(a1-3)[Fuc(a1-2)Gal(b1-4)GlcNAc(b1-2)Man(a1-6)]Man(b1-4)GlcNAc(b1-4)GlcNAc
# Outline: as §1
# [28] = target: Fuc(a1-2)Gal(b1-4)GlcNAc(b1-2)Man(a1-3)[Fuc(a1-2)Gal(b1-4)GlcNAc(b1-2)Man(a1-6)]Man(b1-4)GlcNAc(b1-4)[Fuc(a1-6)]GlcNAc
# Outline: as §1
# [29] = target: Fuc(a1-2)Gal(b1-4)GlcNAc(b1-2)[Fuc(a1-2)Gal(b1-4)GlcNAc(b1-4)]Man(a1-3)[Fuc(a1-2)Gal(b1-4)GlcNAc(b1-2)Man(a1-6)]Man(b1-4)GlcNAc(b1-4)GlcNAc
# Outline: as §1
# [30] = target: Fuc(a1-2)Gal(b1-4)GlcNAc(b1-3)Gal(b1-4)GlcNAc
# Outline: as §1
# [31] = target: Fuc(a1-2)Gal(b1-4)GlcNAc(b1-3)Gal(b1-4)GlcNAc(b1-2)Man(a1-3)[Fuc(a1-2)Gal(b1-4)GlcNAc(b1-3)Gal(b1-4)GlcNAc(b1-2)Man(a1-6)]Man(b1-4)GlcNAc(b1-4)GlcNAc
# Outline: as §1
# [32] = target: Fuc(a1-2)Gal(b1-4)GlcNAc(b1-3)Gal(b1-4)GlcNAc(b1-3)Gal(b1-4)GlcNAc
# Outline: as §1
# [33] = target: Fuc(a1-2)Gal(b1-4)GlcNAc(b1-3)GalNAc
# Outline: as §1
# [34] = target: Fuc(a1-2)Gal(b1-4)GlcNAc(b1-3)[Fuc(a1-2)Gal(b1-4)GlcNAc(b1-6)]GalNAc
# Outline: as §1
# [35] = target: Fuc(a1-2)Gal(b1-4)GlcNAc(b1-3)[Fuc(a1-3)[Gal(b1-4)]GlcNAc(b1-6)]Gal(b1-4)Glc
# Outline: as §1
# [36] = target: Fuc(a1-2)Gal(b1-4)GlcNAc(b1-6)GalNAc
# Outline: as §1
# [37] = target: Fuc(a1-2)Gal(b1-4)GlcNAc6S
# Outline: as §1
# [38] = target: Fuc(a1-2)Gal(b1-4)[Fuc(a1-3)]GlcNAc
# Outline: as §1
# [39] = target: Fuc(a1-2)Gal(b1-4)[Fuc(a1-3)]GlcNAc(b1-2)Man(a1-3)[Fuc(a1-2)Gal(b1-4)[Fuc(a1-3)]GlcNAc(b1-2)Man(a1-6)]Man(b1-4)GlcNAc(b1-4)[Fuc(a1-6)]GlcNAc
# Outline: as §1
# [40] = target: Fuc(a1-2)Gal(b1-4)[Fuc(a1-3)]GlcNAc(b1-2)[Fuc(a1-2)Gal(b1-4)[Fuc(a1-3)]GlcNAc(b1-4)]Man(a1-3)[Fuc(a1-2)Gal(b1-4)[Fuc(a1-3)]GlcNAc(b1-2)Man(a1-6)]Man(b1-4)GlcNAc(b1-4)GlcNAc
# Outline: as §1
# [41] = target: Fuc(a1-2)Gal(b1-4)[Fuc(a1-3)]GlcNAc(b1-3)Gal(b1-4)[Fuc(a1-3)]GlcNAc
# Outline: as §1
# [42] = target: Fuc(a1-2)Gal(b1-4)[Fuc(a1-3)]GlcNAc(b1-3)Gal(b1-4)[Fuc(a1-3)]GlcNAc(b1-3)Gal(b1-4)[Fuc(a1-3)]GlcNAc
# Outline: as §1
# [43] = target: Fuc(a1-2)Gal(b1-4)[Fuc(a1-3)]GlcNAc(b1-3)GalNAc
# Outline: as §1
# [44] = target: Fuc(a1-2)Gal(b1-4)[Fuc(a1-3)]GlcNAc(b1-3)[Neu5Ac(a2-6)Gal(b1-4)GlcNAc(b1-6)]Gal(b1-4)Glc
# Outline: as §1
# [45] = target: Fuc(a1-2)Gal3S(b1-4)GlcNAc
# Outline: as §1
# [46] = target: Fuc(a1-2)Gal6S(b1-3)GlcNAc
# Outline: as §1
# [47] = target: Fuc(a1-2)Gal6S(b1-3)GlcNAc6S
# Outline: as §1
# [48] = target: Fuc(a1-2)Gal6S(b1-4)Glc
# Outline: as §1
# [49] = target: Fuc(a1-2)Gal6S(b1-4)Glc6S
# Outline: as §1
# [50] = target: Fuc(a1-2)[Gal(a1-3)]Gal
# Outline: as §1
# [51] = target: Fuc(a1-2)[Gal(a1-3)]Gal(b1-3)GalNAc
# Outline: as §1
# [52] = target: Fuc(a1-2)[Gal(a1-3)]Gal(b1-3)GalNAc(b1-3)Gal(a1-4)Gal(b1-4)Glc
# Outline: as §1
# [53] = target: Fuc(a1-2)[Gal(a1-3)]Gal(b1-3)GlcNAc
# Outline: as §1
# [54] = target: Fuc(a1-2)[Gal(a1-3)]Gal(b1-3)GlcNAc(b1-2)Man(a1-3)[Fuc(a1-2)[Gal(a1-3)]Gal(b1-3)GlcNAc(b1-2)Man(a1-6)]Man(b1-4)GlcNAc(b1-4)GlcNAc
# Outline: as §1
# [55] = target: Fuc(a1-2)[Gal(a1-3)]Gal(b1-3)GlcNAc(b1-2)Man(a1-3)[Fuc(a1-2)[Gal(a1-3)]Gal(b1-3)GlcNAc(b1-2)Man(a1-6)]Man(b1-4)GlcNAc(b1-4)[Fuc(a1-6)]GlcNAc
# Outline: as §1
# [56] = target: Fuc(a1-2)[Gal(a1-3)]Gal(b1-3)GlcNAc(b1-3)GalNAc
# Outline: as §1
# [57] = target: Fuc(a1-2)[Gal(a1-3)]Gal(b1-3)GlcNAc(b1-6)GalNAc
# Outline: as §1
# [58] = target: Fuc(a1-2)[Gal(a1-3)]Gal(b1-4)Glc
# Outline: as §1
# [59] = target: Fuc(a1-2)[Gal(a1-3)]Gal(b1-4)GlcNAc
# Outline: as §1
# [60] = target: Fuc(a1-2)[Gal(a1-3)]Gal(b1-4)GlcNAc(b1-2)Man
# Outline: as §1
binder,measurement,setting,value
B1,glycan array binding signal (z-score),[1],-0.191
same,glycan array binding signal (z-score),[2],-0.192
same,glycan array binding signal (z-score),[3],-0.194
same,glycan array binding signal (z-score),[4],-0.192
same,glycan array binding signal (z-score),[5],-0.192
same,glycan array binding signal (z-score),[6],-0.195
same,glycan array binding signal (z-score),[7],-0.188
same,glycan array binding signal (z-score),[8],-0.193
same,glycan array binding signal (z-score),[9],0.083
same,glycan array binding signal (z-score),[10],-0.118
same,glycan array binding signal (z-score),[11],-0.189
same,glycan array binding signal (z-score),[12],-0.194
same,glycan array binding signal (z-score),[13],-0.174
same,glycan array binding signal (z-score),[14],-0.192
same,glycan array binding signal (z-score),[15],-0.194
same,glycan array binding signal (z-score),[16],-0.188
same,glycan array binding signal (z-score),[17],-0.195
same,glycan array binding signal (z-score),[18],-0.165
same,glycan array binding signal (z-score),[19],0.027
same,glycan array binding signal (z-score),[20],-0.195
same,glycan array binding signal (z-score),[21],-0.105
same,glycan array binding signal (z-score),[22],-0.17
same,glycan array binding signal (z-score),[23],-0.196
same,glycan array binding signal (z-score),[24],-0.192
same,glycan array binding signal (z-score),[25],-0.194
same,glycan array binding signal (z-score),[26],-0.193
same,glycan array binding signal (z-score),[27],0.121
same,glycan array binding signal (z-score),[28],0.154
same,glycan array binding signal (z-score),[29],0.032
same,glycan array binding signal (z-score),[30],-0.195
same,glycan array binding signal (z-score),[31],-0.11
same,glycan array binding signal (z-score),[32],-0.187
same,glycan array binding signal (z-score),[33],-0.194
same,glycan array binding signal (z-score),[34],-0.191
same,glycan array binding signal (z-score),[35],-0.19
same,glycan array binding signal (z-score),[36],-0.177
same,glycan array binding signal (z-score),[37],-0.196
same,glycan array binding signal (z-score),[38],-0.194
same,glycan array binding signal (z-score),[39],0.115
same,glycan array binding signal (z-score),[40],-0.151
same,glycan array binding signal (z-score),[41],-0.189
same,glycan array binding signal (z-score),[42],-0.165
same,glycan array binding signal (z-score),[43],-0.184
same,glycan array binding signal (z-score),[44],-0.187
same,glycan array binding signal (z-score),[45],-0.194
same,glycan array binding signal (z-score),[46],-0.192
same,glycan array binding signal (z-score),[47],-0.187
same,glycan array binding signal (z-score),[48],-0.193
same,glycan array binding signal (z-score),[49],-0.189
same,glycan array binding signal (z-score),[50],-0.194
same,glycan array binding signal (z-score),[51],-0.193
same,glycan array binding signal (z-score),[52],-0.195
same,glycan array binding signal (z-score),[53],-0.194
same,glycan array binding signal (z-score),[54],0.003
same,glycan array binding signal (z-score),[55],0.122
same,glycan array binding signal (z-score),[56],-0.194
same,glycan array binding signal (z-score),[57],-0.195
same,glycan array binding signal (z-score),[58],-0.195
same,glycan array binding signal (z-score),[59],-0.192
same,glycan array binding signal (z-score),[60],-0.195
